In ChEMBL document CHEMBL1201862, “PubChem BioAssay data set” (2004):
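Grown in 96-well plates, cells were treated for 48 hours with each compound at five concentrations. Insufficient inhibition: endpoint recorded as highest concentration tested. GI50 marks 50% less growth.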 Active and inactive are the calls of the source. Rule as the data show it: active = GI50 up to about 1.1 µM and inactive = higher.

Key:
Test in all cases: NCI-60 cell line screen, 48 h
786-0 = system: 786-0
A498 = system: A498
A549 = system: A549
ACHN = system: ACHN
BT-549 = system: BT-549
CAKI-1 = system: CAKI-1
CCRF-CEM = system: CCRF-CEM
COLO 205 = system: COLO 205
DU-145 = system: DU-145
EKVX = system: EKVX
HCT-116 = system: HCT-116
HCT-15 = system: HCT-15
HL-60 = system: HL-60
HOP-62 = system: HOP-62
HT-29 = system: HT-29
Hs-578T = system: Hs-578T
IGROV-1 = system: IGROV-1
K562 = system: K562
KM12 = system: KM12
LOX IMVI = system: LOX IMVI
M14 = system: M14
MCF7 = system: MCF7
MDA-MB-231 = system: MDA-MB-231
MDA-MB-435 = system: MDA-MB-435
MDA-N = system: MDA-N
MOLT-4 = system: MOLT-4
Malme-3M = system: Malme-3M
NCI-H226 = system: NCI-H226
NCI-H23 = system: NCI-H23
NCI-H522 = system: NCI-H522
NCI/ADR-RES = system: NCI/ADR-RES
OVCAR-3 = system: OVCAR-3
OVCAR-4 = system: OVCAR-4
OVCAR-5 = system: OVCAR-5
OVCAR-8 = system: OVCAR-8
PC-3 = system: PC-3
RPMI-8226 = system: RPMI-8226
RXF 393 = system: RXF 393
SF-268 = system: SF-268
SF-295 = system: SF-295
SK-MEL-28 = system: SK-MEL-28
SK-MEL-2 = system: SK-MEL-2
SK-MEL-5 = system: SK-MEL-5
SK-OV-3 = system: SK-OV-3
SN12C = system: SN12C
SNB-19 = system: SNB-19
SNB-75 = system: SNB-75
SR = system: SR
SW-620 = system: SW-620
T47D = system: T47D
TK-10 = system: TK-10
U-251 = system: U-251
UACC-257 = system: UACC-257
UACC-62 = system: UACC-62
UO-31 = system: UO-31

CN1C2CCC1CC(OC(=O)C(O)c1ccccc1)C2 (stereo not given)
GI50 (786-0): inactive: > 100 µM
GI50 (A498): inactive: > 100 µM
GI50 (A549): inactive: > 100 µM
GI50 (ACHN): inactive: > 100 µM
GI50 (BT-549): inactive: > 100 µM
GI50 (CAKI-1): inactive: > 100 µM
GI50 (CCRF-CEM): inactive: > 100 µM
GI50 (COLO 205): inactive: > 100 µM
GI50 (DU-145): inactive: > 100 µM
GI50 (EKVX): inactive: > 100 µM
GI50 (HCT-116): inactive: > 100 µM
GI50 (HCT-15): > 100 µM
GI50 (HL-60): inactive: > 100 µM
GI50 (HOP-62): inactive: > 100 µM
GI50 (HT-29): inactive: > 100 µM
GI50 (Hs-578T): inactive: 87.5 µM
GI50 (IGROV-1): inactive: > 100 µM
GI50 (K562): inactive: > 100 µM
GI50 (KM12): inactive: > 100 µM
GI50 (LOX IMVI): inactive: > 100 µM
GI50 (M14): inactive: > 100 µM
GI50 (MCF7): inactive: > 100 µM
GI50 (MDA-MB-231): inactive: > 100 µM
GI50 (MDA-MB-435): inactive: > 100 µM
GI50 (MDA-N): inactive: > 100 µM
GI50 (MOLT-4): inactive: > 100 µM
GI50 (Malme-3M): inactive: > 100 µM
GI50 (NCI-H226): inactive: > 100 µM
GI50 (NCI-H23): inactive: > 100 µM
GI50 (NCI-H522): inactive: > 100 µM
GI50 (NCI/ADR-RES): inactive: > 100 µM
GI50 (OVCAR-3): inactive: > 100 µM
GI50 (OVCAR-4): inactive: > 100 µM
GI50 (OVCAR-5): inactive: > 100 µM
GI50 (OVCAR-8): inactive: > 100 µM
GI50 (PC-3): inactive: > 100 µM
GI50 (RPMI-8226): inactive: 31 µM
GI50 (RXF 393): inactive: > 100 µM
GI50 (SF-268): inactive: > 100 µM
GI50 (SF-295): inactive: > 100 µM
GI50 (SK-MEL-28): inactive: > 100 µM
GI50 (SK-MEL-2): inactive: > 100 µM
GI50 (SK-MEL-5): inactive: > 100 µM
GI50 (SK-OV-3): inactive: > 100 µM
GI50 (SN12C): inactive: > 100 µM
GI50 (SNB-19): inactive: > 100 µM
GI50 (SNB-75): inactive: > 100 µM
GI50 (SR): inactive: > 100 µM
GI50 (SW-620): inactive: > 100 µM
GI50 (T47D): inactive: > 100 µM
GI50 (TK-10): inactive: > 100 µM
GI50 (U-251): inactive: > 100 µM
GI50 (UACC-257): inactive: > 100 µM
GI50 (UACC-62): inactive: > 100 µM
GI50 (UO-31): inactive: > 100 µM
